About 2,200 (0.71%) of roughly 310,000 compounds showed an effect of 50% or more. Effects have a minus sign here. The list shows a part of the results.
Target: human ether-à-go-go-related gene (hERG) potassium channel (human, UniProt Q12809)
Assay: primary screen, population patch clamp on CHO cells stably expressing hERG

Sequence of human ether-à-go-go-related gene (hERG) potassium channel (Q12809 whole entry, looked up): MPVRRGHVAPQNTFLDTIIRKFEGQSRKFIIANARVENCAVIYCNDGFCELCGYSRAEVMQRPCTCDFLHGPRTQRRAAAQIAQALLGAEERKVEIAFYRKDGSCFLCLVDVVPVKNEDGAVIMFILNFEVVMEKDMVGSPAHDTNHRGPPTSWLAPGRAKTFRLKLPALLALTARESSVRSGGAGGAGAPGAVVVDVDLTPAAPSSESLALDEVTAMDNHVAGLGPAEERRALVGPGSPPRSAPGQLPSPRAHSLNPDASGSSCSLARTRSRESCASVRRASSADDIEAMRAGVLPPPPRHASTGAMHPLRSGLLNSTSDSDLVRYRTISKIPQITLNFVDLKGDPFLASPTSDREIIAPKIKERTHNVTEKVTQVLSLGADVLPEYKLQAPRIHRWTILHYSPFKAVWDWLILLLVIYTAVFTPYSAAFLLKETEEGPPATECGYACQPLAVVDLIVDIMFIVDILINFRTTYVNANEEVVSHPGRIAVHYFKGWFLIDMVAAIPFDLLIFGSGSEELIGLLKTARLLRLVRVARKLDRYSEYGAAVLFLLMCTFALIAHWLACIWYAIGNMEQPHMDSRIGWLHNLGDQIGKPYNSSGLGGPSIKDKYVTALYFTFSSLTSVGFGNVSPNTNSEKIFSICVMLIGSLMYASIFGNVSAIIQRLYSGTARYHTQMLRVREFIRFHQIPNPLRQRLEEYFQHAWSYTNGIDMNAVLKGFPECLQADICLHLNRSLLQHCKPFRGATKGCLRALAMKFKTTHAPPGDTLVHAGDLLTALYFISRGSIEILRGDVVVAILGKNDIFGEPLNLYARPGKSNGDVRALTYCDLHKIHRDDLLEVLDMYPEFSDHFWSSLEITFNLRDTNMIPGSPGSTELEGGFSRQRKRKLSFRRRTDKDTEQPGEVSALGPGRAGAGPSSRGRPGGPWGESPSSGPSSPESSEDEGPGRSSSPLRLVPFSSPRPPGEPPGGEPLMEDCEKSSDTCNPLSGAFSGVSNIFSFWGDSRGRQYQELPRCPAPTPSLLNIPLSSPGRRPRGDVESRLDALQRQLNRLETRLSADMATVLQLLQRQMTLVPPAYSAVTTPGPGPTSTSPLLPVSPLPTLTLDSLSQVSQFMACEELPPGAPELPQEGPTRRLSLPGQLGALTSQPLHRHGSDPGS

Row | Compound | hERG current change (%, negative = inhibition) at 1uM
1 | Cc1ncoc1C(=O)N1CCCC(C(=O)c2ccc(C(F)(F)F)cc2)C1 (centres unmarked) | 1.65%
2 | COc1ccc(NC(=O)CN(C)C(=O)CC2CCCCC2)cc1 | 3.61%
3 | Cc1ccc(C(C(=O)NCC2CCCO2)N(Cc2ccccc2F)C(=O)Cn2nnc(-c3cccs3)n2)cc1 (centres unmarked) | 13.9%
4 | O=C(Nc1nccs1)[C@@H]1CC=C[C@@H]2CCN(Cc3ccccc3)C(=O)[C@@H]21 | 17.9%
5 | CC(C)CC(=O)N1CCN(c2ccc([N+](=O)[O-])c(NCc3ccccc3)c2)CC1 | 3.51%
6 | CCOc1ccc(/C=N/NC(=O)c2ccc(Cn3cc(Br)cn3)o2)cc1 | 3.2%
7 | COc1ccc(CC(=O)Nc2ccc(S(=O)(=O)Nc3cc(C)on3)cc2)cc1 | -5.27%
8 | COc1ccc(CC2(CO)CCN(S(=O)(=O)c3c(C)nn(C)c3C)CC2)cc1 | 18.6%
9 | CC1=NN(C(=O)c2ccoc2C)C(O)(C(F)(F)F)C1 (centres unmarked) | 11.3%
10 | O=C1c2cc(F)ccc2OC2(CCNCC2)C12CC(c1ccccc1)=NO2 (centres unmarked) | 18.4%
11 | CCOC(=O)C1CCN(c2ccccc2CN2CCN(c3ccccc3OCC)CC2)CC1 | -1.93%
12 | CC(=O)Oc1ccccc1-c1nc(/C=C/c2ccccc2)no1 | 16.8%
13 | CC(=NCCc1c[nH]c2ccccc12)c1c(O)n(Cc2ccccc2)c(=O)[nH]c1=O | 10.6%
14 | COc1cc(C2=CCN(C(C)=O)CC2)ccc1OC(C)=O | 12.3%
15 | COc1cc(S(=O)(=O)Nc2ccncc2)ccc1F | 24%
16 | CCCC(=O)Nc1ccc(NC(=O)Cc2ccccc2)cn1 | 3.08%
17 | Cc1cc(C(=O)N/N=C2/CC(C)CC(C)(C)C2)c(C)o1 (centres unmarked) | 9.97%
18 | Cc1ccc(C(=O)N2CCN(c3ccc(F)cc3)CC2)cc1S(=O)(=O)N1CCCCC1 | -11.6%
19 | COc1ccc(/C(O)=C2/C(=O)C(=O)N(c3ncccn3)C2c2ccc(OC)c(OC)c2)cc1 (centres unmarked) | 1.28%
20 | COc1cccc(CC(=O)OCc2csc(CC(=O)Nc3ccccc3C)n2)c1 | 9.5%
21 | COc1ccccc1CNC(=O)Cn1nnnc1CN(C)C(C)C | 12.5%
22 | Cc1cc(C)c(C)c(OCC(=O)N2CCOCC2)c1 | 12.3%
23 | CNC(=O)COC(=O)c1nc(-n2nc(C)cc2C)ccc1Cl | 4.32%

Row | Compound | hERG current change (%, negative = inhibition) at 1uM
24 | COc1ccc(NC(=O)CC(c2ccc(F)cc2)c2ccc(OC(C)C)cc2)cc1 (centres unmarked) | 4.65%
25 | COc1ccc(NC2CCCN(C(=O)Cn3ccc(C)n3)C2)cc1OC (centres unmarked) | 27%
26 | Cc1nc2cc(C(=O)O)ccc2n1-c1ccccc1 | 15.3%
27 | COc1cc(/C=N/NC(=O)C(C)n2nnc3ccccc32)ccc1O (centres unmarked) | 9.89%
28 | CCOC(=O)c1ccc(NC(=S)N2CCC(C(N)=O)CC2)cc1 | -2.23%
29 | O=[N+]([O-])c1ccc(N2CCN(c3ccccc3Cl)CC2)cn1 | -10%
30 | CC1(C)Nc2ccccc2C(=O)N1NC(=O)c1ccccc1 | 4.68%
31 | Cc1cc(NS(=O)(=O)c2ccc(NC(=O)/C=C/c3c(F)cccc3Cl)cc2)no1 | 12.3%
32 | O=C1C=C(N2CCOCC2)CCC1 | 12.9%
33 | O=[N+]([O-])c1cccc(/C([O-])=C(/C(=S)Nc2ccccc2F)[n+]2ccccc2)c1 | 4.59%
34 | CNc1nc(SC(C)C(=O)Nc2ccc(Cl)c(Cl)c2)nc(N2CCOCC2)n1 (centres unmarked) | 11.8%
35 | O=C(CCCN1C(=O)/C(=C/c2ccccc2)SC1=S)Nc1ccccc1O | 4.51%
36 | CCCCn1c(SCC(=O)c2ccc(O)c(O)c2)nc2ccsc2c1=O | 11.3%
37 | COc1ccc(Cl)cc1NC(=O)NCc1ccc2c(c1)OCO2 | -4.8%
38 | CN(C)C=O.Cc1cccc(-n2nnnc2SCC(=O)N(CC(C)C)c2c(N)n(CC(C)C)c(=O)[nH]c2=O)c1 | 4.9%
39 | CCNC(=O)c1c(C)[nH]c(C(=O)OCC)c1C | 8.48%
40 | CC(C)N(C(=O)CSc1ncnc2sc(-c3ccccc3)cc12)C(C)C | 12.2%
41 | c1ccc(-c2noc(-c3ccco3)n2)nc1 | 2.45%
42 | COc1ccc(CNC(=O)C2=C(C)C(=O)OC23CCC(C)CC3)cc1 (centres unmarked) | 17.3%
43 | N#Cc1ccc(-c2ccccc2)nc1SCC(=O)c1cc2ccccc2oc1=O | 19.3%
44 | S=c1[nH]nc(-c2ccco2)n1/N=C/c1ccc(Cl)cc1 | 12.8%
45 | ON/C=N/C(=S)Nc1ncc(C(F)(F)F)cc1Cl | 6.38%
46 | O=C(N/N=C/c1c(O)ccc2ccccc12)c1ccc(Br)o1 | 13.4%

Row | Compound | hERG current change (%, negative = inhibition) at 1uM
47 | CCc1cccc(CC)c1NC(=S)N(CCN(C)C)C(C)c1cccnc1 (centres unmarked) | 8.51%
48 | O=C(CNS(=O)(=O)c1ccc(Cl)c(C(F)(F)F)c1)NC1CCCCCC1 | 9%
49 | COCCC(=O)N1CCC(Oc2ccc(C(=O)NCCSC)cc2)CC1 | 18.5%
50 | O=C(/C=C/c1ccc([N+](=O)[O-])cc1)NCc1ccco1 | -3.05%
51 | COc1ccc(Br)cc1/C(C)=N/NC1=NCCN1.Cl | -0.131%
52 | COc1ccc(-c2nnn(CC(=O)N3CCN(c4ccccc4OC)CC3)n2)cc1OC | 24.8%
53 | C=CCOc1ccc(/C=C/C(=O)OCC(=O)NC2CCCCCCC2)cc1 | 12.2%
54 | O=C(CC(=O)Nc1ccccc1[N+](=O)[O-])Nc1ccccc1[N+](=O)[O-] | 10.6%
55 | O=C(Nc1ccc(N2CCN(C(=O)c3ccco3)CC2)cc1)c1cc(Br)ccc1Cl | 8.3%
56 | O=C(COC(=O)/C=C/c1ccco1)Nc1ncc(Cl)cc1Cl | 5.52%
57 | O=C(O)C1=C[C@@H](c2coc3ccccc3c2=O)C[C@@H](OCCCCO)O1 | 18.1%
58 | CC(C)(CNC(=O)Cc1ccc(NS(=O)(=O)c2cccc(C(F)(F)F)c2)cc1)N1CCOCC1 | 0.453%
59 | CN(C)c1ncc(S(=O)(=O)c2ccccc2)c(=O)[nH]1 | 14.9%
60 | NCC(O)CN(c1ccccc1)c1ccccc1 (centres unmarked) | 15.1%
61 | O=C(O)c1c(-c2ccc(Cl)cc2)cn2ccccc12 | 16.2%
62 | CCOc1nc2cnccc2n(CC(=O)Nc2c(F)c(F)cc(F)c2F)c1=O | 17.2%
63 | COc1cccc(NC(=O)CN2C(=O)NC(c3ccccc3)(c3ccccc3)C2=O)c1 | 9.04%
64 | O=C(CN1CCOCC1)NCCC12CC3CC(CC(C3)C1)C2 | 1.4%
65 | Cc1nc2sccn2c(=O)c1S(=O)(=O)N1CCN(c2cccc(C(F)(F)F)c2)CC1 | 16.8%
66 | O=C1CSC(=Nc2ccccc2)N1 | 9.27%
67 | Cc1c(Cl)cccc1NC(=O)NNC(=O)CCc1ccccc1 | 15.9%
68 | O=C(CN1C(=O)NC2(CCCCCC2)C1=O)N1CCCCC1 | 6.81%
69 | O=C(Cc1ccc(Cl)cc1)N1CCOCC1 | 8.39%

Row | Compound | hERG current change (%, negative = inhibition) at 1uM
70 | CSc1ncccc1C(=O)OCC(=O)c1ccc(S(=O)(=O)N2CCCCC2)cc1 | 8.16%
71 | COc1cccc(OCC(=O)Nc2c3c(nn2-c2ccc(F)cc2)CS(=O)(=O)C3)c1 | 5.33%
72 | CC1CCCCN1C(=O)COC(=O)CNC(=O)c1sc2ccccc2c1Cl (centres unmarked) | 4.84%
73 | CCN(C(=O)Cn1cnc2c1c(=O)n(C)c(=O)n2C)C1CCS(=O)(=O)C1 (centres unmarked) | 2.1%
74 | COc1cccc(NC(=S)C(C#N)=C2N(C)c3ccccc3N2C)c1 | 10.1%
75 | CCCOc1ccc(-c2nnc(-c3cccs3)o2)cc1 | 13.6%
76 | COc1ccc(S(=O)(=O)N(CCC(N)=O)Cc2ccco2)cc1OC | 12.2%
77 | CCOC(=O)C1C(=O)NC(SCC(N)=O)=C(C#N)C1c1ccccc1OCC (centres unmarked) | 4.3%
78 | O=C(CSc1ccc(Cl)cc1)Nc1nnc(-c2ccco2)o1 | -1.41%
79 | C=CCOc1cccc(CNCc2cccnc2)c1.Cl | 17%
80 | C=C(C)CC1(NC(C)c2ccccc2)CCCCC1 (centres unmarked) | 9.47%
81 | Cc1cc(C)nc(N/N=C/c2ccc([N+](=O)[O-])o2)n1 | 10.3%
82 | Cc1[nH]c(-c2ccco2)nc1C(=O)O | -0.859%
83 | CC(C)[C@H](NC(=O)N1CC(=O)Nc2ccccc21)C(=O)N[C@@H](C(=O)O)c1ccccc1 | 17.6%
84 | O=[N+]([O-])c1ccc(Cl)c(/C=N/Nc2nc(N3CCOCC3)nc(N3CCOCC3)n2)c1 | 14.1%
85 | O=c1c2ccccc2nnn1CSc1ccccc1 | 7.39%
86 | CSCCC(NS(=O)(=O)c1ccccc1F)C(=O)NCc1ccncc1 (centres unmarked) | 2.74%
87 | CCOc1cc(N2CCOCC2)c(OCC)cc1NC(=O)[C@H](C)N1C(=O)C2CC=CCC2C1=O (some centres unmarked) | 7.64%
88 | COc1ccc(CNCCNC(=O)c2cccs2)cc1OC.O=C(O)C(=O)O | -5.92%
89 | Cn1nc(-c2ccc(Cl)cc2)cc1NC(=O)CSCC(=O)O | 10.6%
